According to PubChem BioAssay AID1814 (Broad Institute, 2009):
Among all 300,000 compounds or so, about 22,000 (7.3%) were called active. This list was built around the results that the source calls inconclusive (neither active nor inactive); the mix of calls is not that of the screen. Rule as the data show it: active = activity score below about -60%; inconclusive = mostly about -28% to -61%; inactive = positive scores.

Test: Activators via SNCA 5'UTR binding, MLPCN (AID 1814)
Conditions: alpha-synuclein 5'UTR reporter, activators screen; hits give low values; tested at 7.5 µM

Activity score, inactive:
Oc1cccc(C(Nc2nccs2)c2ccc3cccnc3c2O)c1 (stereo not drawn) 132%
Cc1cc(Cl)n2c(nc3ccccc32)c1C#N 88.7%
CCOc1ccc(-c2nnc(NC(=O)c3ccc(OCC(C)C)c(OC)c3)o2)cc1 58.5%
O=C(Nc1nc(-c2ccccn2)cs1)c1cc(Cl)ccc1[N+](=O)[O-] 116%
Cc1ccc(O)c(/C=N/NC(=O)Cc2ccc(Cl)cc2)c1 61.5%
CSc1nc(N(C)NC(=O)c2ccc(F)cc2)c2ccccc2n1 76.7%
CC(=O)O[C@H]1C(=O)[C@@]2(C)C([C@H](OC(=O)c3ccccc3)[C@]3(O)C[C@H](OC(=O)[C@H](O)[C@@H](NC(=O)c4ccccc4)c4ccccc4)C(C)=C1C3(C)C)[C@]1(OC(C)=O)CO[C@@H]1C[C@H]2O (stereo partly drawn) 102%
COc1ccc(-c2nsc3c(N4CCCCC4)ncnc23)cc1 85.4%
O=C1c2ccccc2C(=O)c2c1ncn2-c1ccccc1 70.3%
Cc1cccc(NC(=S)N=Nc2c(O)n(C)c3ccc(S(=O)(=O)N4CCOCC4)cc23)c1 83.4%
CC[C@@]1(O)C(=O)OCc2c1cc1n(c2=O)Cc2cc3c(N)cccc3nc2-1 103%
COc1ccc(OC)c(NS(=O)(=O)c2ccc(N3CCCC3=O)cc2)c1 111%
COc1ccc(C(=O)c2cc([N+](=O)[O-])ccc2N2CCOCC2)cc1 58.3%
Cc1ccc(C(=O)O/N=C(\N)c2ccccc2)c(Cl)c1 85.1%
CN(Cc1ccccc1)S(=O)(=O)c1ccc(C(=O)Nc2nnc(C3CC3)o2)cc1 60.1%
N/C(=N\OC(=O)c1ccc([N+](=O)[O-])cc1Cl)c1ccccn1 68.9%
O=C(N/N=C(\c1ccccc1)c1ccccn1)c1cccc([N+](=O)[O-])c1 99%
CCCc1cc(-c2nc(N)ncc2-c2ccc3c(c2)OCCCO3)c(O)cc1OC 61.7%
O=c1cccc2c1c1cc[nH]c3ccc(=O)n2c31 78.9%
CN(C)CCCN(C(=O)CCc1ccccc1)c1nc2ccc(Cl)cc2s1 109%
Nc1c(C(=O)NCC2CCCO2)c2nc3ccccc3nc2n1-c1ccccc1 (stereo not drawn) 61.4%
COc1ccccc1N1CCN(c2nc(C)nc3c2oc2ccccc23)CC1 89.5%
O=Cc1cc2ccccc2nc1SCc1ccc(Cl)c(Cl)c1 109%

Activity score, active:
COc1ccc(NC(=O)C2Cc3ccccc3O/C2=N\O)cc1 (stereo not drawn) -82.3%
CSc1ccc(C2Nc3ccccc3-c3cc(C)nn32)cc1 (stereo not drawn) -101%
COCCN(C(=O)c1ccccc1F)c1nnc(-c2ccc(OC)cc2)s1 -73%

Activity score, inconclusive:
Cc1ccc(S(=O)(=O)c2nc(Nc3ccccc3C#N)sc2Cl)cc1 -47.2%
Cc1nc(SCc2ccccc2)n[nH]1 -44.5%
Fc1cccc(-c2cc3nc4c(c(NCc5ccco5)n3n2)CCCC4)c1 -58.9%
CCOCc1nnc(NC(=O)c2cc(Cl)ccc2OC)s1 -33.4%
C=CCNC(=O)/C=C/c1c(F)cccc1Cl -56.5%
COc1cccc(C(=O)c2cc3ccc(O)cc3oc2=O)c1 -37.3%
O=C(Nc1ccccc1C(=O)OCC(=O)c1c[nH]c2ccccc12)c1ccco1 -58.1%
Cc1cc(C)c2oc(-c3ccc(C)c(NC(=S)NC(=O)c4cccs4)c3)nc2c1 -52.4%
O=[N+]([O-])c1cccc2cn[nH]c12 -37.7%
O=C(NCCCN1CCCC1)c1cc(Sc2ccc(F)cc2)nc2ccccc12 -32.2%
CCOC(=O)C(=Cc1ccc(-n2ccnc2)cc1)C(=O)OCC -48%
Cc1ccc(NC(=S)Nc2cccc(-c3n[nH]c(=S)o3)c2)cc1 -57%
CCOc1ccc(N=C2NC(=O)S/C2=C\c2ccc(OC)cc2)cc1 -40.6%
CCN(CC(=O)Nc1ccc2c(c1)OCCO2)c1nc(-c2cccnc2)nc2ccccc12 -36.6%
CCOc1ccc(N=C2C(=O)N(CN3CCOCC3)c3ccccc32)cc1 -28.5%
Cc1nc(C)c(C(=O)Nc2cccc(Cl)c2)o1 -38.8%
CCc1ccc(NC(=O)CC2NCCNC2=O)cc1 (stereo not drawn) -52.6%
S=C(NCCC1=CCCCC1)NCc1ccco1 -59.5%
Cc1cc(NC(=O)c2ccc(Cl)cc2)cc(C)c1OCC(=O)N1CCOCC1 -59.9%
COc1ccc(NC(=O)c2cc(-c3cccc(OC)c3)on2)cc1 -50.6%
NC(=O)c1ccccc1OCC(=O)N1CCCc2ccccc21 -59.4%
O=C(NNC(=S)Nc1ccc(Cl)cc1)c1ccccc1OC(F)F -38%
Cc1ccc(S(=O)(=O)NC(C)(C)C)cc1C(=O)OCC(=O)N1CCCC1=O -75.9%
COc1cccc(CN2CC(C(=O)NCCCc3ccc(C)cc3)CCC2=O)c1 (stereo not drawn) -58.3%
O=C(COc1ccc2ccccc2c1)Nc1ccc(Cc2ccncc2)cc1 -49.7%
CC(=O)c1sc(-c2cccc(Cl)c2)nc1C -59.8%
O=C(O)c1cccc(N2C(=O)/C(=C/c3ccc([N+](=O)[O-])cc3)C=C2c2ccccc2)c1 -54.5%
O=C(CSc1ccccn1)N1CCc2ccccc21 -54.5%
CCS(=O)(=O)NCc1csc(-c2ccccc2)n1 -45.3%
O=C(NCC(=O)N1CCCCCC1)c1ccc(Br)cc1 -51.7%
Cn1cc(Br)c(C(=O)N2CCc3ccccc32)n1 -43.1%
CCOC(=O)C1(Cc2ccc(OC)cc2)CCN(S(C)(=O)=O)CC1 -44.7%
